Several values for one entry are separate records, joined by “and”; a condition that tells them apart may be missing. Equal values may be shown once. Screen size: about 340,000 compounds; about 12,000 (3.5%) were called active. Inconclusive results, whose numbers are uncertain, are shown with a selection of clear calls. The call rests on the fitted dose curve; in most records, active means well fitted inhibition curve with a large enough effect; inconclusive means small, poorly fitted or top-dose-only effect, or another doubt; inactive means no such curve, though single readings can be large or run the other way. Potencies beside an inconclusive call are fits to weak or partial responses and may not hold up.
Assay: qHTS Assay for Inhibitors of Hepatitis C Virus (HCV)
Conditions: Huh7.5.1 HCVcc-Cre (HCVcc is cell-culture hepatitis C virus) infection, luciferase reporter, 44 h; activity change, negative = inhibition: at 41.8 µM (top of the series) unless noted
Method in brief: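 1,000 cells/well; 4 h culture; + compound; + HCVcc-Cre (~0.5 moi); 44 h; luciferase substrate, RT 15 min; read 15 sec.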
On the % scale 0 is the no-effect control and ±100 the full control effect; potency means the concentration at half of the fitted maximal effect; tags describe the fitted curve by direction and shape.

SMILES	activity change, negative = inhibition	Potency
CC1(C)Cc2ccccc2-c2nnc(-c3cccnc3)n21	inactive: 20.3%	
Nc1ccccc1C(=O)NNc1c2ccccc2nc2ccccc12		inconclusive: 22.4 µM [inhibitor, single point]
CC(=O)c1cccc(NS(=O)(=O)c2ccc(NC(=O)N3CCCCC3)cc2)c1		inconclusive: 2.24 µM [inhibitor, full curve]
Cc1cccc(N2CCN(C(=O)C3CC(=O)N(C4CCCC4)C3)CC2)c1C (centres undefined)		inconclusive: 11.2 µM [inhibitor, single point]
COC(=O)[C@@]12CCCN1[C@H](c1ccc(-c3cccc(Cl)c3)cc1)[C@H]1C(=O)N(C)C(=O)[C@H]12		inconclusive: 22.4 µM [inhibitor, single point]
COc1ccccc1-c1nc(C#N)c(N2CCN(c3cccc(Cl)c3)CC2)o1		inconclusive: 2.82 µM [inhibitor, partial curve]
C=CCC[C@@H](Cc1ccc(F)cc1)C(=O)OC[C@H](C)NC(=O)[C@@H](CC=C)CC(=O)N(CCO)Cc1ccccc1		inconclusive: 8.91 µM [inhibitor, partial curve]
C=CCN(Cc1cc(OC)ccc1OC)C(=O)c1cc2ccc(OC)cc2[nH]1		inconclusive: 14.1 µM [inhibitor, single point]
CCC(=O)N1c2ccc(S(=O)(=O)N3CCN(c4ccccc4Cl)CC3)cc2CC1C (centres undefined)		inconclusive: 25.1 µM [inhibitor, single point]
Cc1ccc(NC(CNS(=O)(=O)c2ccc(Cl)cc2)c2ccccc2)cc1 (centres undefined)		inconclusive: 22.4 µM [inhibitor, single point]
O=c1[nH]c2ccccc2nc1/C=C/c1ccc(O)cc1		inconclusive: 11.2 µM [inhibitor, partial curve]
O=C(/C=C\Nc1ccccc1Br)c1ccc2c(c1)OCO2		inconclusive: 31.6 µM [inhibitor, single point]
COC(=O)c1ccc(OCC2NCCc3cc(OC)c(OC)cc32)cc1 (centres undefined)	inactive: 0.162%	
Cc1ccc(-c2nnn(CC(=O)N(CC(=O)NC3CCCC3)c3ccc(F)c(Cl)c3)n2)o1		inconclusive: 2.51 µM [inhibitor, full curve]
CCSc1nc2c(c(=O)n1Cc1ccccc1)SC(C)C2 (centres undefined)		inconclusive: 2.82 µM [inhibitor, single point]
COc1ccc(N2CCN(C(=O)c3cc(-c4ccc(F)cc4)[nH]c3C)CC2)cc1		inconclusive: 31.6 µM [inhibitor, single point]
CCCC12CN3CCN(CC(C3)/C1=N\NC(=O)c1ccccc1Cl)C2	inactive: -6.65%	
CCN(CC(=O)Nc1c(F)cccc1F)C(=O)c1ccc(-c2ccc(C(C)=O)cc2)o1		inconclusive: 7.94 µM [inhibitor, partial curve]
Cc1ccc(/C=C/C(=O)Nc2ccc([N+](=O)[O-])cc2)o1	inactive: -23.7%	
CC1CCCCN1C(=O)CSc1nc2cc3c(cc2c(=O)n1Cc1ccc2c(c1)OCO2)OCO3 (centres undefined)		inconclusive: 7.94 µM [inhibitor, partial curve] and inconclusive: 31.6 µM [inhibitor, single point]
COc1ccc(-c2csc(C3=C(O)CN(Cc4ccc(Cl)cc4)C3=N)n2)cc1OC		active: 11.2 µM
Cc1ccc(CNc2ncc(-c3ccc4c(c3)OCO4)n2C)cc1		inconclusive: 31.6 µM [inhibitor, single point]

SMILES	activity change, negative = inhibition	Potency
CC(=O)N1CCN(C(=O)c2ccccc2NS(=O)(=O)c2ccc(F)cc2)CC1	inactive: 10.7%	
Cc1ccccc1C(=O)OCc1cnc(Cl)s1	inactive: 2.19%	
N#Cc1ccc(NC(=O)CN2CCN(C(=O)c3cccs3)CC2)cc1Cl		inconclusive: 31.6 µM [inhibitor, single point]
COc1ccc(S(=O)(=O)Nc2ccccc2C(=O)N2CCOCC2)cc1Br	inactive: 42.4%	
Cc1cccn2c(=O)c3cc(C(=O)NCC4CCCO4)c(=N)n(C4CCCCC4)c3nc12 (centres undefined)		inconclusive: 31.6 µM [inhibitor, single point]
N#CCC(=O)N1CCn2c1nc1ccccc12	inactive: 7.72%	
CCCCCCCC(=O)Nc1ccc(C(=O)N/N=C/c2cccc([N+](=O)[O-])c2)cc1		inconclusive: 10 µM [inhibitor, partial curve, poor fit]
C/C(=N\NC(=O)c1cccc(Br)c1)c1ccccn1		inconclusive: 0.562 µM [inhibitor, full curve]
O=C(Nc1ccc([N+](=O)[O-])cc1)C1COc2ccccc2O1 (centres undefined)	inactive: 15.9%	
CCOc1ccc(S(=O)(=O)N2CCN(Cc3ccc4c(c3)OCO4)CC2)cc1OCC	inactive: -24.8%	
O=C(CN1C2=NCCCN2c2ccccc21)c1ccc2c(c1)OCO2		active: 11.2 µM
Cc1nn(-c2ccccc2)c(Cl)c1/C=N/NS(=O)(=O)c1ccc(Br)cc1	inactive: -21.4%	
CCNC(=O)NC(=O)COC(=O)c1cccc(S(=O)(=O)N2CC3(C)CC2CC(C)(C)C3)c1 (centres undefined)	inactive: 0.963%	
Cc1ccc(-c2nnc3n2N=C(c2ccccc2)CS3)cc1	inactive: -3.57%	
O=C(Nc1cc(Cl)cc(Cl)c1)C1CCCC1		inconclusive: 5.62 µM [inhibitor, partial curve]
COc1ccc(C(=O)CC(=O)C(=O)Nc2ccc([N+](=O)[O-])cc2C)cc1		inconclusive: 22.4 µM [inhibitor, single point]
C[N+](C)(C)Cc1ccccc1	inactive: 0.724% [at 8.37 µM]	
CC(=O)Nc1ccc(NC(=O)c2cccc(S(=O)(=O)N3CCCCCC3)c2)cc1		inconclusive: 11.2 µM [inhibitor, single point]
C=CCCC(=O)Nc1nc(C)c(-c2csc(Nc3cc(OC)ccc3OC)n2)s1		active: 3.16 µM
Cn1c(=O)c2cc(S(=O)(=O)Nc3ccc4c(c3)OCO4)ccc2n(C)c1=O		inconclusive: 31.6 µM [inhibitor, single point]
CCOC(=O)C(C)/C(C)=N\Nc1ccc([N+](=O)[O-])cc1[N+](=O)[O-] (centres undefined)		inconclusive: 7.08 µM [inhibitor, partial curve]
Brc1ccc(-c2csc(N3CCOCC3)n2)cc1		active: 11.2 µM

From PubChem BioAssay AID651820 (National Center for Advancing Translational Sciences (NCATS), 2012)
